Among all 45,000 compounds or so, about 65 (0.1%) were called active. The call rests on the fitted dose curve; in most records, active means well fitted activation curve with a large enough effect; inconclusive means small, poorly fitted or top-dose-only effect; inactive means no such curve, though single readings can be large or run the other way. Some of the results follow.
target: Galactocerebrosidase (Homo sapiens) (UniProt P54803); experiment: A Novel Cell-Based Assay to Identify Small Molecules for B -Galactocerebrosidase; details: 145M-Twi-hGALC-G270D cells (Twitcher mouse brain line with human GALC G270D), HMU-beta-Gal fluorescence, 48 h; series mostly up to 57.5 µM; activation: at the top concentration; further: 0% is about no effect; nearly all actives have a fitted effect of over 65% in size
Sequence of UniProt P54803 (P54803 whole entry, looked up): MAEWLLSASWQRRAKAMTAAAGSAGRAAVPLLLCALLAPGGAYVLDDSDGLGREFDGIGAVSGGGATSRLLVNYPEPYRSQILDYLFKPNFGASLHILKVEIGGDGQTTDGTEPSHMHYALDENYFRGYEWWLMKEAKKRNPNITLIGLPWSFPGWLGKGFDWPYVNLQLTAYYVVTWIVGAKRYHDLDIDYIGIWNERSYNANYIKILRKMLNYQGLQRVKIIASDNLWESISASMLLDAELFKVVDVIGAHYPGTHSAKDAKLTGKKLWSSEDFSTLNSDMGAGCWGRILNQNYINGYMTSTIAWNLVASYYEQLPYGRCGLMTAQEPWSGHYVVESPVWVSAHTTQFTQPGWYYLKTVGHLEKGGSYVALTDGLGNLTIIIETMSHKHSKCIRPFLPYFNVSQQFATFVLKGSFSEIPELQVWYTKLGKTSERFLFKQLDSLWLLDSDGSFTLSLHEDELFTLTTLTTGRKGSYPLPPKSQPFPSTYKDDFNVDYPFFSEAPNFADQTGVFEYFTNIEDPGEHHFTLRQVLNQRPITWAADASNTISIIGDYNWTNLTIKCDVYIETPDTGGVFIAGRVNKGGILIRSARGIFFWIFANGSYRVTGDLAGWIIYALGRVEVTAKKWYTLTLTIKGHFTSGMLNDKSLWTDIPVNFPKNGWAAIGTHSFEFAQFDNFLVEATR
Outline: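 Brain-derived Twitcher mouse 145M-Twi cells stably expressing human GALC-G270D or wild-type GALC, treated live, then residual GALC activity read by fluorescence of HMU-b-Gal substrate (0.1 mM final) in citrate-phosphate buffer pH 5.2 with sodium taurocholate. Signal increase indicates enhancement.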

SMILES | activation
COc1ccc(-c2cc(C(=O)NCc3ccc(F)cc3)c3c(-c4ccc(F)cc4)[nH]nc3n2)cc1OC | inactive: -15.3%
CCc1ccc2oc(-c3cc(NC(=O)C(C)C)cc(C)c3O)nc2c1 | inactive: -20.9%
CCCOc1ccc(-c2nonc2NC(=O)c2oc3ccc(C)cc3c2C)cc1OCCC | inactive: -9.9%
O=C(Cn1cc(SCc2ccc(C(F)(F)F)cc2)c2ccccc21)N1CCCC1 | inactive: -9.26%
CCOC(=O)N1CCC(NC(=O)c2cnn(-c3cccc(Cl)c3C)c2C2CCN(C(=O)OC(C)(C)C)CC2)CC1 | inactive: -21.5%
CC(=O)N1c2ccc(S(=O)(=O)N3CCCCCC3)cc2CC1C(=O)NCc1ccc(Cl)cc1 (stereo not drawn) | inactive: -10.7%
COc1cccc(CNC(=O)C2CCN(S(=O)(=O)c3cn(C)cn3)CC2)c1 | inactive: -16.8%
O=C(CC1C(=O)OCCN1Cc1ccccc1)Nc1cccc(C(F)(F)F)c1 (stereo not drawn) | inactive: -7.91%
COc1ccc(OC)c(NC(=O)c2cc(CN3CCCC3)on2)c1 | inactive: -16.8%
Oc1ccc(Cl)cc1C1=Nc2ccccc2N=C(c2cccc(Br)c2)C1 | inactive: -14.7%
CN1CCN(c2nc3c(S(=O)(=O)c4ccc(Br)cc4)nnn3c3ccsc23)CC1 | inactive: -6.54%
CCc1sc(Nc2cccc(Cl)c2C)nc1-c1cc2cccc(OC)c2oc1=O | inactive: -8.11%
COc1cccc(CN2CCc3nc(N4CCN(c5ncccn5)CC4)ncc3C2)c1 | inactive: -21.3%
Cc1c(Cl)cccc1NC(=O)CSc1ncccc1C(=O)Oc1ccccc1Cl | inactive: -15.1%
Cc1ccc(NC(=O)C(=O)NCC(c2cccnc2)N2CCN(C)CC2)cc1F (stereo not drawn) | inactive: -26.1%
COC(=O)C(CCSC)NC(=O)c1c(C)oc2ncn(CC(C)C)c(=O)c12 (stereo not drawn) | inactive: -7.39%
CCOCCSc1c(C)cnc2c1c(=O)n(C)c(=O)n2C | inactive: -22.1%
Cc1ccc(N2C(=O)c3[nH]nc(-c4ccc(Cl)cc4)c3C2c2ccc(F)cc2)cc1 (stereo not drawn) | inactive: -11.1%
COc1cc2ccccc2cc1C(=O)Nc1ccc(Cl)c(-c2nc3ccccc3o2)c1 | inactive: -3.31%
COc1ccc(CNC(=O)c2cccc(-n3cnc4cccnc43)c2C)cc1 | inactive: -6.94%
CCOc1ccc(NC(=O)Cn2ccn(-c3ccc(F)c(F)c3)c(=O)c2=O)cc1 | inactive: -18.6%
COc1cccc(C(=O)Nc2ccc(-c3cn4cccnc4n3)cc2)c1OC | inactive: 12.1%
COc1cc(OC)cc(C(=O)NCC(c2cccs2)S(=O)(=O)c2ccc(F)c(C)c2)c1 (stereo not drawn) | inactive: -11.7%
COc1cc(C(=O)N2CCN(CCc3ccccn3)CC2)cc(OC)c1OC | inactive: -9.39%

SMILES | activation
COc1ccc(NC(=O)CSCc2cnn(-c3ccccc3)c2-n2cccc2)cc1 | inactive: -4.41%
CCn1ccc2cc(S(=O)(=O)N3CCC(C(=O)NCCc4ccc(C)cc4)CC3)ccc21 | inactive: -1.3%
CCC(C)NC(=O)c1ccc2nc(Cc3ccc(OC)cc3)oc2c1 (stereo not drawn) | inactive: -16.6%
NS(=O)(=O)c1ccc(NC(=O)c2ccc3c(c2)CCN3S(=O)(=O)c2ccccc2)cc1 | inactive: -18.6%
CC1=C(c2ccc(C)cc2)S(=O)(=O)N(Cc2ccc(C(=O)Nc3ccc(F)cc3C)cc2)C1=O | inactive: 0.336%
COc1ccccc1NC(=O)CN1C(=O)C2(SCC(=O)N2c2ccc(C)c(C)c2)c2ccccc21 (stereo not drawn) | inactive: -21.5%
Cc1ccc(N(CC(=O)Nc2cc(C)cc(C)c2)S(=O)(=O)c2cccc3nonc23)cc1 | inactive: -0.871%
CSc1ncc(Cl)c(C(=O)N(Cc2ccc(N(C)C)cc2)Cc2ccco2)n1 | inactive: -15.2%
Cc1c(Cl)cccc1NC(=O)C(C)n1nnc2sc3c(c2c1=O)CCCC3 (stereo not drawn) | inactive: -18.2%
Cc1c(C)n(C)c2ccc(C(=O)N3CCN(c4ccccc4)CC3)cc12 | inactive: -5.48%
CCc1ccc(CNC(=O)CN2C(=O)c3cccnc3Oc3ccc(C)cc32)cc1 | inactive: -7.14%
Cc1ccc2c(=O)cc(C(=O)Nc3ccc(S(=O)(=O)N4CCCCCC4)cc3)oc2c1C | inactive: -7.66%
CCCCOc1ccc(CNC(=O)CCCN2C(=O)CSc3c2c(C)nn3-c2ccccc2)cc1 | inactive: -13%
CCOC(=O)c1ccccc1NC(=O)c1sc2nc3n(c(=O)c2c1C)CCCC3 | inactive: -14.7%
Cc1cc(C)cc(NC(=O)Cn2c(=O)c3ccccc3n3nncc23)c1 | inactive: -2.76%
CC(C)c1ccc(C2N=C(N)Nc3nc4ccccc4n32)cc1 (stereo not drawn) | inactive: -5.36%
CC(CC(=O)Nc1ccc(Br)cc1F)S(=O)(=O)c1ccc2c(c1)NC(=O)CO2 (stereo not drawn) | inactive: -2.15%
CCOC(=O)C1CCN(C(=O)C2CCN(C3=NS(=O)(=O)C(c4ccc(C)c(C)c4)=C3C)CC2)CC1 | inactive: -16.2%
Cc1cccc(C2CC(=O)Oc3c2c(=O)n(C)c2ccccc32)c1 (stereo not drawn) | inactive: -7.54%
CCc1ccc(Cc2cnc(NC(=O)c3ccc4c(c3)CC(c3ccccc3)OC4=O)s2)cc1 (stereo not drawn) | inactive: -11%
Cc1ccc(CNC(=O)Cn2cc(C(=O)c3ccc(F)cc3)c(=O)c3ccc(C)nc32)cc1 | inactive: -20.5%
CCC(C)NC(=O)C(=O)Nc1c2c(nn1-c1ccccc1)CS(=O)(=O)C2 (stereo not drawn) | inactive: -7.05%
COc1ccc(CNC(=O)c2cc3c(s2)-c2ccccc2OC3)cc1 | inactive: 21.3%
O=C(Cn1c(=O)n(-c2ccc(F)c(Cl)c2)c(=O)c2sc3ccccc3c21)NC1CCCC1 | inactive: -10.3%

From PubChem BioAssay AID1159614 (National Center for Advancing Translational Sciences (NCATS), 2016)
